This is an account of results in PMC5892938.

Some of the results follow. At the low end of the ranking the order means little.

The assay concerns the target GST-SBP-SLBP (stem-loop binding protein) (UniProt Q14493). Kind of assay: targeted RNA Bind-n-Seq.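 Note: DESeq read counts versus GST-SBP nonspecific binding control pulldown.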 The settings on record: RBNS binding buffer: 25 mM Tris pH 7.5, 150 mM KCl, 3 mM MgCl2, 0.1% Tween, 0.5 mg/mL BSA, 1 mM DTT; 27 nM protein, 750 pM RNA pool; temperature not stated; high values mean tight binding.
“GGUCACGUCUCAAUCAACUCAACUCCCAGGGAAAUCCCUGGCUAUCUCAACAGCUCGCAGUCAAG”: the binding signal (log2 fold change) is -0.215.

In the case of “GGUCACGUCUCAAUCAACUCAUCUUCCAGGGAAAACCCUGGCUUUCUCAACAGCUCGCAGUCAAG”, the binding signal (log2 fold change) is 0.29. Consider “GGUCACGUCUCAAUCAACUCACUCGAGGGGGGGAAAACCCCUUUACCCUCAUCCUCAACAGCUCGCAGUCAAG”, for which the binding signal (log2 fold change) is 0.0215.

Consider “GGUCACGUCUCAAUCAACUCAUUUUCCAGGGAAACCCCUGGCAUUCUCAACAGCUCGCAGUCAAG”, for which the binding signal (log2 fold change) was -0.189. On to “GGUCACGUCUCAAUCAACUCUUUUCCAGGAGUUUCCUCCUGCUUUUUCAACAGCUCGCAGUCAAG”, for which the binding signal (log2 fold change) was -0.165. As to “GGUCACGUCUCAAUCAACUCUAUCUCCAGGGAAAACCCUGGCAUAUUCAACAGCUCGCAGUCAAG”, the binding signal (log2 fold change) was -0.0315. Take “GGUCACGUCUCAAUCAACUCAAUUUCAGGAGUUUGCUCCUGUUUUCUCAACAGCUCGCAGUCAAG”: the binding signal (log2 fold change) is -0.0879.

“GGUCACGUCUCAAUCAACUCAAUCGCAGGAGUUUCCUCCUGGUAAUUCAACAGCUCGCAGUCAAG”: the binding signal (log2 fold change) is -0.00627.

In the case of “GGUCACGUCUCAAUCAACUCUUCCCCCAGGGAAAACCCUGGUUUUCUCAACAGCUCGCAGUCAAG”, the binding signal (log2 fold change) is -0.058. As for “GGUCACGUCUCAAUCAACUCUUUCGAGGGGGGGAAAACCCCUUUACCCUCCAUAUCAACAGCUCGCAGUCAAG”, the binding signal (log2 fold change) is -0.474. With “GGUCACGUCUCAAUCAACUCUAAAGAGGGGGGGAAAACCCCUUUGCCCUCAUCCUCAACAGCUCGCAGUCAAG”, the binding signal (log2 fold change) was -0.0198. Turning to “GGUCACGUCUCAAUCAACUCCUCAGAGGGGGGGAAAACCCCUUUACCCUCCAUAUCAACAGCUCGCAGUCAAG”, the binding signal (log2 fold change) was -0.095. Next, “GGUCACGUCUCAAUCAACUCUUUUUCCAGGGAAAACCCUGGCAAUCUCAACAGCUCGCAGUCAAG”: 0.0719; “GGUCACGUCUCAAUCAACUCAUUCUCCAGGGAAAUCCCUGGCUUAUUCAACAGCUCGCAGUCAAG”: -0.0612; “GGUCACGUCUCAAUCAACUCAUUUUCAGGAGUUUACUCCUGUAUUCUCAACAGCUCGCAGUCAAG”: 0.191. Turning to “GGUCACGUCUCAAUCAACUCUAUUCCCAGGGAAAGCCCUGGUUUAUUCAACAGCUCGCAGUCAAG”, the binding signal (log2 fold change) was -0.21. Regarding “GGUCACGUCUCAAUCAACUCUUCUCCCAGGGAAAACCCUGGUUAUGUCAACAGCUCGCAGUCAAG”, the binding signal (log2 fold change) is -0.132.

Regarding “GGUCACGUCUCAAUCAACUCAUUCCCCAGGGAAAACCCUGGUUAACUCAACAGCUCGCAGUCAAG”, the binding signal (log2 fold change) amounted to 0.0487. For the sequence “GGUCACGUCUCAAUCAACUCAAUUUCAGGAGUUUACUCCUGCAAUCUCAACAGCUCGCAGUCAAG”, the binding signal (log2 fold change) stood at 0.189. Turning to “GGUCACGUCUCAAUCAACUCAAUCCCAGGAGUUUUCUCCUGCAAACUCAACAGCUCGCAGUCAAG”, the binding signal (log2 fold change) was 0.0764. Next, “GGUCACGUCUCAAUCAACUCAGUCCCAGGAGUUUGCUCCUGUAUAUUCAACAGCUCGCAGUCAAG”: -0.27. Then “GGUCACGUCUCAAUCAACUCAUCCUCCAGGGAAACCCCUGGCAUAUUCAACAGCUCGCAGUCAAG”, with -0.00158. For the sequence “GGUCACGUCUCAAUCAACUCUAGUCCAGGAGUUUUCUCCUGUAAUCUCAACAGCUCGCAGUCAAG”, the binding signal (log2 fold change) amounted to 0.15. For “GGUCACGUCUCAAUCAACUCUUCAGAGGGGGGGAAAACCCCUUUACCCUCACCUUCAACAGCUCGCAGUCAAG”, the binding signal (log2 fold change) was -0.485. In the case of “GGUCACGUCUCAAUCAACUCAGUCCCAGGAGUUUUCUCCUGUAUAUUCAACAGCUCGCAGUCAAG”, the binding signal (log2 fold change) was found to be 0.0845. For “GGUCACGUCUCAAUCAACUCUACAGAGGGGGGGAAAACCCCUUUACCCUCAAAAUCAACAGCUCGCAGUCAAG”, the binding signal (log2 fold change) is -0.000381. In the case of “GGUCACGUCUCAAUCAACUCUAUCUCCAGGGAAAGCCCUGGUUAACUCAACAGCUCGCAGUCAAG”, the binding signal (log2 fold change) is -0.179.

“GGUCACGUCUCAAUCAACUCAUCUUCAGGAGUUUCCUCCUGCAUACUCAACAGCUCGCAGUCAAG”: the binding signal (log2 fold change) was -0.00804. Then “GGUCACGUCUCAAUCAACUCUAUCUCAGGAGUUUACUCCUGUUUUUUCAACAGCUCGCAGUCAAG”, with 0.0772; and “GGUCACGUCUCAAUCAACUCAAUCCCCAGGGAAACCCCUGGCAUACUCAACAGCUCGCAGUCAAG”, with -0.082; and “GGUCACGUCUCAAUCAACUCUUCGUCAGGAGUUUUCUCCUGUUUACUCAACAGCUCGCAGUCAAG”, with 0.0786. Next, “GGUCACGUCUCAAUCAACUCUUUCGAGGGGGGGAAAACCCCUUUACCCUCAUCAUCAACAGCUCGCAGUCAAG”: 0.165; “GGUCACGUCUCAAUCAACUCUUUCCCAGGAGUUUUCUCCUGCAUUUUCAACAGCUCGCAGUCAAG”: -0.0132. Next, “GGUCACGUCUCAAUCAACUCUUCGCCCAGGGAAAGCCCUGGUUUAUUCAACAGCUCGCAGUCAAG”: -0.122.

“GGUCACGUCUCAAUCAACUCAUUCUCAGGAGUUUCCUCCUGCUUACUCAACAGCUCGCAGUCAAG”: the binding signal (log2 fold change) was 0.144. Turning to “GGUCACGUCUCAAUCAACUCAUACGAGGGGGGGAAAACCCCUUUACCCUCUAAAUCAACAGCUCGCAGUCAAG”, the binding signal (log2 fold change) stood at 0.199. With “GGUCACGUCUCAAUCAACUCAUUUUCCAGGGAAAUCCCUGGUUAUCUCAACAGCUCGCAGUCAAG”, the binding signal (log2 fold change) is -0.0405.

In the case of “GGUCACGUCUCAAUCAACUCAGUCUCCAGGGAAAUCCCUGGCUAUUUCAACAGCUCGCAGUCAAG”, the binding signal (log2 fold change) was found to be 0.139.

As to “GGUCACGUCUCAAUCAACUCUAUUCCCAGGGAAAGCCCUGGCUUUCUCAACAGCUCGCAGUCAAG”, the binding signal (log2 fold change) is -0.0194.

As for “GGUCACGUCUCAAUCAACUCAACUUCCAGGGAAACCCCUGGUUAUUUCAACAGCUCGCAGUCAAG”, the binding signal (log2 fold change) was -0.217. With “GGUCACGUCUCAAUCAACUCAACUCCCAGGGAAACCCCUGGUAUUCUCAACAGCUCGCAGUCAAG”, the binding signal (log2 fold change) was -0.449.

With “GGUCACGUCUCAAUCAACUCAUCCCCCAGGGAAAUCCCUGGUUAACUCAACAGCUCGCAGUCAAG”, the binding signal (log2 fold change) is 0.0437.

For “GGUCACGUCUCAAUCAACUCUAUUUCCAGGGAAAACCCUGGUUUACUCAACAGCUCGCAGUCAAG”, the binding signal (log2 fold change) came out at 0.256.

Take “GGUCACGUCUCAAUCAACUCAUCCCCAGGAGUUUUCUCCUGCUAUUUCAACAGCUCGCAGUCAAG”: the binding signal (log2 fold change) was found to be 0.208. Then “GGUCACGUCUCAAUCAACUCAUCGCCAGGAGUUUCCUCCUGUUAACUCAACAGCUCGCAGUCAAG”, with 0.101. For the sequence “GGUCACGUCUCAAUCAACUCUUAAGAGGGGGGGAAAACCCCUUUGCCCUCAAAAUCAACAGCUCGCAGUCAAG”, the binding signal (log2 fold change) turned out to be 0.118. Then “GGUCACGUCUCAAUCAACUCAUCCCCCAGGGAAAUCCCUGGUUUUCUCAACAGCUCGCAGUCAAG”, with -0.202; and “GGUCACGUCUCAAUCAACUCACUAGAGGGGGGGAAAACCCCUUUACCCUCGUUUUCAACAGCUCGCAGUCAAG”, with -0.124. Consider “GGUCACGUCUCAAUCAACUCUUUUCCCAGGGAAAGCCCUGGCUAUCUCAACAGCUCGCAGUCAAG”, for which the binding signal (log2 fold change) stood at 0.057. Then “GGUCACGUCUCAAUCAACUCUUUUUCAGGAGUUUUCUCCUGUUUUGUCAACAGCUCGCAGUCAAG”, with -0.0971; and “GGUCACGUCUCAAUCAACUCACUUGAGGGGGGGAAAACCCCUUUACCCUCUACAUCAACAGCUCGCAGUCAAG”, with -0.31; and “GGUCACGUCUCAAUCAACUCUACUCCAGGAGUUUUCUCCUGUAAUGUCAACAGCUCGCAGUCAAG”, with 0.087. For the sequence “GGUCACGUCUCAAUCAACUCUUUCUCCAGGGAAAACCCUGGCUUUCUCAACAGCUCGCAGUCAAG”, the binding signal (log2 fold change) was 0.12. Next, “GGUCACGUCUCAAUCAACUCUAAAGAGGGGGGGAAAACCCCUUUACCCUCCAUCUCAACAGCUCGCAGUCAAG”: 0.188; “GGUCACGUCUCAAUCAACUCAUAAGAGGGGGGGAAAACCCCUUUACCCUCAUUUUCAACAGCUCGCAGUCAAG”: -0.65. Regarding “GGUCACGUCUCAAUCAACUCAUCAGAGGGGGGGAAAACCCCUUUACCCUCAACUUCAACAGCUCGCAGUCAAG”, the binding signal (log2 fold change) worked out at 0.39. “GGUCACGUCUCAAUCAACUCACUAGAGGGGGGGAAAACCCCUUUGCCCUCAAUUUCAACAGCUCGCAGUCAAG”: the binding signal (log2 fold change) was -0.182. With “GGUCACGUCUCAAUCAACUCUUUAGAGGGGGGGAAAACCCCUUUACCCUCAACCUCAACAGCUCGCAGUCAAG”, the binding signal (log2 fold change) is -0.0524. Regarding “GGUCACGUCUCAAUCAACUCUUUUUCAGGAGUUUACUCCUGUUAUUUCAACAGCUCGCAGUCAAG”, the binding signal (log2 fold change) came out at 0.169. As for “GGUCACGUCUCAAUCAACUCCUAAGAGGGGGGGAAAACCCCUUUACCCUCAUACUCAACAGCUCGCAGUCAAG”, the binding signal (log2 fold change) is 0.0238.

As for “GGUCACGUCUCAAUCAACUCAACUUCAGGAGUUUACUCCUGUAAUUUCAACAGCUCGCAGUCAAG”, the binding signal (log2 fold change) was determined as 0.174. For “GGUCACGUCUCAAUCAACUCAUUCUCAGGAGUUUUCUCCUGCAAUCUCAACAGCUCGCAGUCAAG”, the binding signal (log2 fold change) was determined as 0.0353. For the sequence “GGUCACGUCUCAAUCAACUCUACUCCCAGGGAAAUCCCUGGUUUACUCAACAGCUCGCAGUCAAG”, the binding signal (log2 fold change) was -0.282. Consider “GGUCACGUCUCAAUCAACUCUAUAGAGGGGGGGAAAACCCCUUUACCCUCCACAUCAACAGCUCGCAGUCAAG”, for which the binding signal (log2 fold change) is -0.0284. Next, “GGUCACGUCUCAAUCAACUCUAUUCCAGGAGUUUCCUCCUGUUAACUCAACAGCUCGCAGUCAAG”: 0.216. With “GGUCACGUCUCAAUCAACUCUAUCCCCAGGGAAAACCCUGGCAUUCUCAACAGCUCGCAGUCAAG”, the binding signal (log2 fold change) was -0.00304. For the sequence “GGUCACGUCUCAAUCAACUCAUCUUCAGGAGUUUGCUCCUGUAUUCUCAACAGCUCGCAGUCAAG”, the binding signal (log2 fold change) was found to be 0.182. As for “GGUCACGUCUCAAUCAACUCUUCUUCCAGGGAAAACCCUGGCAUAUUCAACAGCUCGCAGUCAAG”, the binding signal (log2 fold change) is -0.0837. Then “GGUCACGUCUCAAUCAACUCAGUUCCCAGGGAAAUCCCUGGCAUAUUCAACAGCUCGCAGUCAAG”, with 0.0159; and “GGUCACGUCUCAAUCAACUCACAAGAGGGGGGGAAAACCCCUUUGCCCUCCAAUUCAACAGCUCGCAGUCAAG”, with -0.246.

As to “GGUCACGUCUCAAUCAACUCAUCAGAGGGGGGGAAAACCCCUUUGCCCUCAACAUCAACAGCUCGCAGUCAAG”, the binding signal (log2 fold change) is -0.112. Regarding “GGUCACGUCUCAAUCAACUCAAAAGAGGGGGGGAAAACCCCUUUGCCCUCCACAUCAACAGCUCGCAGUCAAG”, the binding signal (log2 fold change) worked out at 0.0127. For “GGUCACGUCUCAAUCAACUCUUUCCCCAGGGAAAACCCUGGUUAUCUCAACAGCUCGCAGUCAAG”, the binding signal (log2 fold change) came out at 0.0662. On to “GGUCACGUCUCAAUCAACUCAACGCCAGGAGUUUACUCCUGCUAUUUCAACAGCUCGCAGUCAAG”, for which the binding signal (log2 fold change) stood at 0.0465.
